Values joined by “and” are separate entries in the source; they are usually repeats but may differ in a detail not shown here. Identical values can stand only once. In all, about 110,000 compounds went through this assay and about 230 (0.21%) showed an effect of 50% or more. The list shows a part of the results.
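Also: 30 min substrate incubation versus DMSO and 10 µM JCP410 controls.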

The assay deals with DPAP1 (Plasmodium falciparum, UniProt Q8IIJ9). Put plainly: primary screen, percent inhibition; read by cleavage of a fluorogenic dipeptide substrate; higher = more effect of the substance. More on the design: species or system P. falciparum D10 trophozoite lysates; single well.
Sequence of DPAP1 (Q8IIJ9 whole entry, looked up): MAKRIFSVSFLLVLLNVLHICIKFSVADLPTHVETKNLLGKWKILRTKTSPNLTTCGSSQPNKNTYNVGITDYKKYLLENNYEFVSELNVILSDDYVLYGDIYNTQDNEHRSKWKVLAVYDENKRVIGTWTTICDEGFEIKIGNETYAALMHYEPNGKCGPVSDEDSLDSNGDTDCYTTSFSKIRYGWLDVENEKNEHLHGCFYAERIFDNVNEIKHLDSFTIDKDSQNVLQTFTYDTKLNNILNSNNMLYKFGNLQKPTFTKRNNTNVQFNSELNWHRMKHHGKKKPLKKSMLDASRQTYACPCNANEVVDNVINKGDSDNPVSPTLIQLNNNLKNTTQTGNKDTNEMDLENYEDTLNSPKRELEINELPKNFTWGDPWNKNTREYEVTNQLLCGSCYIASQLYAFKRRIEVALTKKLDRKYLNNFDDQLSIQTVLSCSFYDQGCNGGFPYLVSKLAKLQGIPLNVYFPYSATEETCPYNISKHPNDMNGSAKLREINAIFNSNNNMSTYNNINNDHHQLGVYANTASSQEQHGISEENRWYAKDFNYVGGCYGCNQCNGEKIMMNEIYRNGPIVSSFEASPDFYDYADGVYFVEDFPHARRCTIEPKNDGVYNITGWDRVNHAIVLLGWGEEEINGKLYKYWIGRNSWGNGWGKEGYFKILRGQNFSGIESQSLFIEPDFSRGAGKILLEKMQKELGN
On to `CNC(=O)Cc1coc2ccc3ccccc3c12`, for which the “% Inhibition @ 10 uM” value is reported as -1.11%.
For `Cn1c2ccccc2c2nnc(NCc3ccccc3)nc21`, the “% Inhibition @ 10 uM” value is recorded as -0.0652%.
In the case of `Cc1ccc(C(C)C)c(OCC(=O)Nc2ccc(S(=O)(=O)Nc3nccs3)cc2)c1` it was -3.13%.
On to `Cc1ccc(Cn2c(C)c3cnn(CC(=O)NC(C)c4ccccc4)c(=O)c3c2C)cc1` (centres unmarked), for which the “% Inhibition @ 10 uM” value amounted to 1.22%.
In the case of `NC(=O)c1cc(S(=O)(=O)NCCCc2ccco2)cs1` it was -2.31%; in that of `Cc1ccc(C(=O)Nc2sc3c(c2C(N)=O)CCCCCC3)o1`, 1.57%; in that of `C=CCSC[C@H](NC(=O)OCc1ccccc1)C(=O)NCC#N`, 15.6%.
As to `CCC(C)NC(=O)CN1C(=O)NC2NC(=O)NC21` (centres unmarked), the “% Inhibition @ 10 uM” value was 6.37%.
As to `Cc1cc(NC(=O)c2cc(-c3ccccc3Cl)nc3ccccc23)no1`, the “% Inhibition @ 10 uM” value was 0.64%.
In the case of `O=C(Cn1nc(Cc2ccncc2)c2ccccc2c1=O)N1CC=C(c2ccccc2)CC1`, the “% Inhibition @ 10 uM” value was found to be 9.33%.
In the case of `CC1(C)CC(C)(c2ccccc2O)Oc2ccccc21` (centres unmarked) it was -3.49%.
The value for `COc1cc(NC(=O)c2sc3nc(-c4ccc(F)cc4)ccc3c2N)cc(OC)c1OC` was -1.6%.
In the case of `COc1cc(SC)ccc1C(=O)N1CCCC1` it was -0.759%.
In the case of `FC(F)(F)c1nnc(N2CCNCC2)s1`, the “% Inhibition @ 10 uM” value was determined as 0.627%.
Regarding `CC(C)Oc1ccc(CNCc2ccc(C(=O)O)s2)cc1`, the “% Inhibition @ 10 uM” value is reported as -5.43%.
The value for `O=C(CCc1ccccc1)Nc1ccccc1C(=O)Nc1ccccc1` was -1.38%.
Take `Cc1ccc(C(=O)N2CCN(c3ccccc3)CC2)cc1`: the “% Inhibition @ 10 uM” value is listed as -0.856%.
As for `Cn1c(=O)c2c(nc(NCCOc3ccc(Cl)cc3)n2C)n(C)c1=O`, the “% Inhibition @ 10 uM” value turned out to be 3.34%.
The value for `O=S(=O)(c1ccccc1)c1nnn2c1nc(NCC1CCCO1)c1sccc12` (centres unmarked) was -3.15%.
With `CCOC(C#CCN(CC)CC)(c1ccccc1)c1ccccc1`, the “% Inhibition @ 10 uM” value is -2.15%.
Regarding `Cc1ccc(C(=O)N2CCc3ccccc3C2)cc1`, the “% Inhibition @ 10 uM” value is -3.04%.
In the case of `CC(C)C[C@H](Nc1nc(-c2cccc(NC(=O)Oc3ccccc3)c2)cs1)C(=O)NCC#N` it was 0.079%; in that of `CCOC(=O)Nc1ccc2c(c1)N(C(C)=O)c1ccccc1CC2`, 0.912%; in that of `Cc1ccnc(NC(=O)Cn2ncc3c4ccccc4nc-3c2O)c1`, 1.9%.
In the case of `Cn1nc(C(=O)NCCc2ccc(S(N)(=O)=O)cc2)c2c1-c1ccccc1S(=O)(=O)C2` it was 3.71%; in that of `O=C(O)c1cnccc1C(=O)Nc1cccc(F)c1`, 1.89%.
Regarding `CC1CCC(N2CCN(c3ccc(Cl)cc3)CC2)CC1` (centres unmarked), the “% Inhibition @ 10 uM” value was found to be 4.75%.
In the case of `O=c1c(-c2ccccc2)coc2cc(OCc3ccccc3F)ccc12`, the “% Inhibition @ 10 uM” value is given as -1.17%.
On to `COc1cccc(C(=O)C2=C(O)C(=O)N(CCCn3ccnc3)C2c2ccccn2)c1` (centres unmarked), for which the “% Inhibition @ 10 uM” value is reported as -15.1%.
For `CS(=O)(=O)N(CC(=O)N1CCOCC1)c1ccc(Cl)c(Cl)c1`, the “% Inhibition @ 10 uM” value is -3.65%.
As for `CC(=O)N1c2ccccc2N=C2CC(c3cccs3)CC(O)=C2C1c1ccc(F)cc1` (centres unmarked), the “% Inhibition @ 10 uM” value was -0.864%.
The value for `O=C1CC(c2ccccc2)n2ncnc2N1` (centres unmarked) was 2.17%; that for `COc1ccc2[nH]c(C)c(CCNC(=S)NC3CCCCC3)c2c1` was 2.85%; that for `CC1(C)CC(O)=C(C(=O)c2ccccc2)/C(=N/CCO)C1` was -2.77% and 3.59%.
The value for `CC1CCCN(CCCNC(=O)c2ccc(CS(=O)c3ccccc3)o2)C1` (centres unmarked) was -4.96%; that for `O=C1CC(c2ccc(Cl)c(Cl)c2)C2=C(CC(c3cccs3)CC2=O)N1` (centres unmarked) was -2.87%.
The value for `C1Cc2c(c(CN3CCOCC3)c3c(c2CN2CCOCC2)CCC3)C1` was -9.77%.
Consider `O=C(c1cccs1)c1cn(CC(=O)N2CCc3ccccc3C2)c2ccccc12`, for which the “% Inhibition @ 10 uM” value is reported as -5.51%.
In the case of `CCC(=O)Nc1nonc1-c1nc2ccccc2n1C(C)C` it was 5.39%.
The value for `Cc1ccccc1OCC(=O)Nc1ccc(Cl)c(C(F)(F)F)c1` was -6.01%; that for `Cn1c(=O)[nH]c(=O)c2c1nc(N1CCCCCC1)n2CCN1CCCCCC1` was 0.758%.
In the case of `N#CCCn1cc(C2CC(c3ccccc3)=NNC2=O)c2ccccc21` (centres unmarked), the “% Inhibition @ 10 uM” value is 3.38%.
In the case of `O=C(O)C1C(C(=O)Nc2cccc([N+](=O)[O-])c2)C2C=CC1C21CC1` (centres unmarked) it was 3.01%.
As to `Cc1ccc(OCC(=O)Nc2ccc(NC(=O)c3ccccc3)c(C)c2)cc1`, the “% Inhibition @ 10 uM” value is listed as 1.08%.
In the case of `O=C(CSc1ccc(-c2cccs2)nn1)c1ccc(F)cc1` it was -3.44%.
In the case of `CCCC[C@H](NC(=O)[C@H](CS(=O)(=O)Cc1ccccc1)NC(=O)N1CCOCC1)C(=O)C1Cc2ccccc2C1=O` (some centres unmarked) it was 19.1%; in that of `COc1ccc2ccccc2c1C1CC(=O)N2CN(C)CSC2=C1C#N` (centres unmarked), 36.5%; in that of `CC(C)(C)C(=O)N1CCCC1C(=O)O` (centres unmarked), -1.36%.
As to `CC(NC(=O)CCc1nnc2n(Cc3ccccc3)c(=O)c3ccccc3n12)c1ccccc1` (centres unmarked), the “% Inhibition @ 10 uM” value is reported as 2.6%.
The value for `CN(C)CCCN1C(=O)CSC1c1cccc(Cl)c1` (centres unmarked) was -3.44%; that for `CN(C)C(=O)C1c2ccccc2C(=O)N(C2CCCC2)C1c1cccs1` (centres unmarked) was 4.41%.
Consider `O=C1OC(c2cccc3ccccc23)=N/C1=C\c1coc2ccc(Cl)cc2c1=O`, for which the “% Inhibition @ 10 uM” value is 11.4%.
Regarding `CC1=C([N+](=O)[O-])CS(=O)(=O)/C1=C/C=C/c1ccccc1`, the “% Inhibition @ 10 uM” value is 6.83%.
For `O=C(COc1ccc2ccc(=O)oc2c1)Nc1ccccn1`, the “% Inhibition @ 10 uM” value was 0.0719%.
`COc1cc(C(=O)Nc2ccccc2)cc(OC)c1OC`: the “% Inhibition @ 10 uM” value was found to be 3.57%.
For the molecule `COC(=O)Nc1c(-c2ccccc2)nc2ccccn12`, the “% Inhibition @ 10 uM” value worked out at 1.54%.
The value for `C=CCn1cc(/C=C2/NC(=O)N(CC)C2=O)c2ccccc21` was -1.43%.
As to `Nc1ccc2oc(=O)c(-c3ccccc3)cc2c1`, the “% Inhibition @ 10 uM” value stood at 4.12%.
With `Cc1nc2c(c(C)nn2-c2ccccc2)c(C)c1CCC(=O)N1CCCC1`, the “% Inhibition @ 10 uM” value was 5.65%.
Regarding `Fc1ccc(CN2CCN(Cc3ccc4c(c3)OCO4)CC2)c(F)c1`, the “% Inhibition @ 10 uM” value is -5.61%.
In the case of `CCOC(=O)c1sc2nc(-c3ccccc3)cc(-c3ccccc3)c2c1N` it was -1.68%; in that of `COCCN1C(=O)c2ccccc2C(C(=O)Nc2cccnc2Cl)C1c1cccs1` (centres unmarked), 5.37%; in that of `O=C(c1cc2c(s1)-c1ccccc1OC2)N1CC=C(c2ccccc2)CC1`, 0.291%.
In the case of `COC(=O)c1ccc(CSc2nnc(C)n2N)o1` it was 2.17%; in that of `Cc1ccc2nc(NC(C)c3ccccc3)c3nnnn3c2c1` (centres unmarked), -0.999%.

Source of the values: article PMC6919601, “Identification of Plasmodium dipeptidyl aminopeptidase allosteric inhibitors by high throughput screening” (PLoS ONE, 2019).
